Laboratory results published in PubChem BioAssay AID2451 (National Center for Advancing Translational Sciences (NCATS), 2010).
The campaign covered roughly 290,000 compounds. About 2,100 (0.72%) were called active. The shares of active, inactive and inconclusive entries below differ from those in the screen. The call rests on the fitted dose curve; in most records, active means well fitted inhibition curve with a large enough effect; inconclusive means small, poorly fitted or top-dose-only effect, or effect the other way; inactive means flat fitted curve, though single readings scatter. Potencies beside an inconclusive call are fits to weak or partial responses and may not hold up.

target: Fructose-bisphosphate aldolase (Giardia intestinalis (strain ATCC 50803 / WB clone C6)) (UniProt A8B2U2); assay: qHTS Assay for Inhibitors of Fructose-1,6-bisphosphate Aldolase from Giardia Lamblia; conditions: purified Giardia FBPA; series mostly up to 59.6 µM; further: nearly all actives have a fitted effect of over 55% in size
Sequence of UniProt A8B2U2 (A8B2U2 whole entry, looked up): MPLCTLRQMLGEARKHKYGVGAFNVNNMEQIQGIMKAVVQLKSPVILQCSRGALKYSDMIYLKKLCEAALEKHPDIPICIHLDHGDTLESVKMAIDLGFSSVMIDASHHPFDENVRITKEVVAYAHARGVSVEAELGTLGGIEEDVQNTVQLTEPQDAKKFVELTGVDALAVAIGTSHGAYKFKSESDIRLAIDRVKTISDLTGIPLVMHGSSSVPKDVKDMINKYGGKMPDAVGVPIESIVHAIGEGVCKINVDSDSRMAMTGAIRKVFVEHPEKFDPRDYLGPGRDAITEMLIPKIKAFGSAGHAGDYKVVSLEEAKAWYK
Procedure, shortened: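 40 nM FBPA preincubated 10 min at RT with compound (up to 57.5 uM final), then substrate plus GAPDH/TPI/NAD/arsenate coupling and diaphorase/resazurin added. Fluorescence read after 20 min at RT, 525/598 nm.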
Potency means the concentration at half of the fitted maximal effect; tags describe the fitted curve by direction and shape.

SMILES	Potency
CCOC(=O)C1CCCN(C(=O)c2cnn3c(C(F)(F)F)cc(-c4ccccc4)nc23)C1 (stereo not given)	inactive
Cc1[nH]c2ccccc2c1/C=N/Nc1ccc([N+](=O)[O-])cc1	inconclusive: 6.29 µM [inhibitor, single point]
Cc1ccc(N/N=C/c2ccc3c(c2)OCCO3)cc1Cl	inactive
COc1cccc(-c2nnc(NC(=O)c3ccc(S(=O)(=O)N(CC(C)C)CC(C)C)cc3)o2)c1	inconclusive: 14.1 µM [activator, partial curve]
NS(=O)(=O)c1ccc(NC(=S)NC(=O)c2ccc3c(c2)OCO3)cc1	inconclusive: 15.8 µM [inhibitor, single point]
Cc1ccc(NC(=S)Nc2cccc3ccccc23)cc1	inconclusive: 28.2 µM [inhibitor, partial curve]
CCOc1ccc(NC(=S)Nc2ccc(Br)cc2Cl)cc1	inactive
COC(=O)C1=C2SC(C)C(=O)N2C(N)=C(C#N)C1c1ccc(OC)c(OC)c1 (stereo not given)	inconclusive: 1.41 µM [inhibitor, partial curve]
Cc1cccc(NC(NC(=O)c2ccccc2[N+](=O)[O-])C(Cl)(Cl)Cl)c1 (stereo not given)	inactive
CCc1ccc(C(=O)Nc2nnn(CC)n2)cc1	inactive
COc1cc(/C=C2\C(=O)NC(=O)N(c3ccccc3)C2=O)c([N+](=O)[O-])cc1OC	inconclusive: 12.6 µM [inhibitor, partial curve]
O=C(O)c1nc2nc(Cl)c(Cl)nc2[nH]1	inconclusive: 12.6 µM [inhibitor, partial curve]
Cc1ccc(N(CC(=O)N/N=C/c2cccnc2)S(=O)(=O)c2ccccc2)cc1	inconclusive: 17.7 µM [inhibitor, single point]
COc1ccc(NC(=S)Nc2ccc3nc(C)c(C)nc3c2)cc1	inconclusive: 1.77 µM [inhibitor, full curve]
COc1ccccc1NC(=O)C/C(N)=N/O	inactive
C/C=C/c1ccc(OCCCCN2CC(C)CC(C)C2)c(OC)c1 (stereo not given)	inconclusive: 15.8 µM [inhibitor, partial curve]
CCCC(=O)N(CCN1CCOCC1)c1nc2ccc(OCC)cc2s1	inconclusive: 28.2 µM [inhibitor, single point]
CCOC(=O)c1c(C)oc2c1c(C=NCCC(=O)O)c(O)c1ccccc12	inconclusive: 1.99 µM [inhibitor, full curve]
CCCc1nc2cc3c(cc2[nH]1)n(C)c(=O)n3C	inconclusive: 28.2 µM [inhibitor, single point]
CCOc1ccc(N=c2scc(-c3ccc(OC)cc3)n2CCO)cc1	inactive
